PubChem BioAssay (Tox21)
The inconclusive results got no clear call from the source; some entries with a clear call stand among them for comparison. Potencies of inconclusive entries are doubtful fits and often do not repeat. Calls of active or inactive are those of the source. Calls come from the whole dose curve; as a rule, active = well fitted activation curve with a large enough effect in the signal ratio in the repeat runs (not every such curve was filed as active); inconclusive = weak or mixed curves; inactive = flat fitted curve, though single readings scatter; the % refers to the signal ratio.

Experiment: qHTS assay to identify small molecule agonists of the hypoxia (HIF-1) signaling pathway (AID 1224846)
Conditions: HRE-bla ME-180 cells, beta-lactamase ratio, 17 h; activation: at 76.8 µM (top of the series) unless noted
From the text: U.S. Tox21 Program National Center for Advancing Translational Sciences [NCATS] NIH Chemical Genomics Center [NCGC] U.S. Environmental Protection Agency [EPA] National Institutes of Environmental Health Sciences [NIEHS] National Toxicology Program [NTP] U.S. Food and Drug Administration [FDA] Tox21 Assay Overview: Hypoxia-inducible factor-1 (HIF-1) is the major hypoxia-regulated transcription factor that controls cellular responses to low oxygen concentration. HIF-1 is composed of two subunits: hypoxia responsive HIF-1-alpha and constitutively expressed HIF-1-beta, which is also known as aryl hydrocarbon receptor nuclear translocator. During hypoxic conditions, HIF-1-alpha heterodimerizes with HIF-1-beta and translocates into the nucleus where the HIF-1 complex binds to the hypoxia-response element (HRE) and activates expression of target genes such as VEGF (vascular endothelial growth factor). The HIF-1 pathway is essential to normal growth and development, and is involved in the pathophysiology of cancer, inflammation, and ischemia. Using a beta-lactamase reporter-gene under control of the hypoxia response element, a cell-based assay [CellSensor(TM) HRE-bla ME-180 from Life Technologies, Carlsbad, CA] was used to measure hypoxia-induced signaling. Tox21 10K library compounds were measured for their ability to induce the reporter gene activity.
Tox21 Assay Protocol Summary: HRE-bla ME-180 cells were dispensed at 2,000 cells per well in 6 uL of assay medium containing 0.5% dialyzed FBS into black wall/clear-bottom 1536-well plates using a Multidrop Combi (Thermo Scientific, Waltham, MA) dispenser. After the assay plates were incubated at 37C and 5% CO2 for 5 hrs, 23 nL of compounds dissolved in DMSO, positive controls or DMSO only was transferred to each well of the assay plate using a Pintool station (Kalypsys, San Diego, CA). The assay plates were incubated at 37C and 5% CO2 for 17 hrs. One uL of LiveBLAzerTM B/G FRET substrate (CCF4-AM) (Life Technologies) was added to each well using a Flying Reagent Dispenser (Aurora Discovery, San Diego, CA).
% is set by controls: 0 for no effect and ±100 for the full control effect; potency is the fitted concentration of half-maximal effect; tags give direction and shape of the fitted curve or compound fluorescence and quenching.

| SMILES | Potency | activation |
| --- | --- | --- |
| CCN[C@@H](C)Cc1ccccc1 | inconclusive: 1.93 µM [falling, full curve] |  |
| CCOC(=O)c1ncn2c1CN(C)C(=O)c1c(I)cccc1-2 |  | inactive: 0.493% [at 35.5 µM] |
| C=CC(Cl)CCl (stereo not given) | inconclusive: 22.3 µM [activator, single point] |  |
| O=P(Cl)(Cl)Cl |  | inactive: -0.656% |
| C=C(C)CCl | inactive |  |
| O=NN(CCO)CCO |  | inactive: -0.0388% |
| O=[N+]([O-])c1cccc2c([N+](=O)[O-])cccc12 |  | inactive: 2.3% |
| CCN(CC)Cc1nccn1-c1ccc([N+](=O)[O-])cc1C(=O)c1ccccc1Cl |  | inactive: 0.517% [at 35.5 µM] |
| CN(C)c1nc(=O)n(C2CCCCC2)c(=O)n1C | inactive |  |
| CCCCC#N |  | inactive: -0.9% |
| CC(Cl)(Cl)Cl |  | inactive: -0.454% |
| CC[N+](=O)[O-] | inactive |  |
| CCC12COCN1COC2 | inconclusive: 0.194 µM [falling, single point] |  |
| CN1C(=O)CN=C(c2ccccc2)c2cc([N+](=O)[O-])ccc21 |  | inactive: 0.738% [at 35.5 µM] |
| CC(C)(C)NCC(O)c1cc(Cl)c(N)c(Cl)c1 (stereo not given) |  | inactive: 0.0896% [at 35.5 µM] |
| CC(C)CBr |  | inactive: 0% |
| CCOC(=O)C(c1c(O)c2ccccc2oc1=O)c1c(O)c2ccccc2oc1=O | inconclusive: 23.9 µM [rising, partial curve, poor fit] |  |
| CC(C)(C)OOC(=O)c1ccccc1 | inactive |  |
| OCC(Cl)CCl (stereo not given) |  | inactive: -0.0567% |
| Oc1ccc2c3c1O[C@H]1[C@@H](O)C=C[C@H]4[C@@H](C2)NCC[C@@]341 | inconclusive: 63.5 µM [rising, partial curve, poor fit] |  |

| SMILES | Potency | activation |
| --- | --- | --- |
| Nc1c(Br)cc(Br)c2c1C(=O)c1ccccc1C2=O |  | inactive: 0.237% [at 15.8 µM] |
| CCNc1nc(NC(C)C)nc(OC)n1 |  | inactive: 0.381% |
| c1ccc(Nc2ccc(Nc3ccccc3)cc2)cc1 | inconclusive: 61.4 µM |  |
| CCCCCCC(=O)CCCCCC/C=C/C[C@@H](O)[C@H](O)[C@@](N)(CO)C(=O)O |  | inactive: -0.0517% [at 15.8 µM] |
| Brc1c(Br)c(Br)c(Br)c(Br)c1Br |  | inactive: -0.641% [at 7.01 µM] |
| c1cc[n+]2c(c1)-c1cccc[n+]1CC2 |  | inactive: 1.49% [at 35.5 µM] |
| CCCCN(CCCC)C(=S)[S-].CCCCN(CCCC)C(=S)[S-].[Ni+2] | inconclusive: 21.3 µM [falling, partial curve] |  |
| CC1=C(C(=O)Nc2ccccc2)S(=O)(=O)CCO1 | inconclusive: 61.6 µM [falling, partial curve, poor fit] |  |
| Cc1cc(Cl)ccc1O | inactive |  |
| CC(C)(C)OC(=O)c1ncn2c1[C@@H]1CCCN1C(=O)c1c(Br)cccc1-2 |  | inactive: -0.362% [at 35.5 µM] |
| C#CC(C)(C)O |  | inactive: 0.128% |
| CC(C)(O)C#N | inactive |  |
| CC(C)[C@]12CC(=O)[C@H](C)[C@H]1C2 |  | inactive: 0.0404% |
| CCCOc1nn(C(=O)NS(=O)(=O)c2ccccc2C(=O)OC)c(=O)n1C |  | inactive: -0.0029% |
| Nc1ccc([N+](=O)[O-])cc1Cl |  | inactive: -0.186% |
| C=C(C)CN(CC)c1c([N+](=O)[O-])cc(C(F)(F)F)cc1[N+](=O)[O-] | inconclusive: 0.195 µM [falling, single point] |  |
| CCCC(C)C1(CC)C(=O)N=C(S)NC1=O (stereo not given) |  | inactive: -1.72% [at 35.5 µM] |
| CS(=O)(=O)NC(=O)c1cc(Oc2ccc(C(F)(F)F)cc2Cl)ccc1[N+](=O)[O-] | inconclusive: 0.195 µM [rising, single point] |  |
| CS(=O)(=O)c1ccc(C(=O)C2C(=O)CCCC2=O)c(Cl)c1COCC(F)(F)F |  | inactive: 0.354% |
| O=C(Cc1ccccc1)OCc1ccccc1 | inconclusive: 62.1 µM [activator, single point] |  |
